Test results published in publication PMC4275180.
No constants are given. Whether binding was seen depends on the method and setting. Binding seen in cells or lysates may run through a third protein. Some binding calls cover weakened binding; strength is not graded here. Where a sequence is shown, tags or fusion partners need not be part of it.

Amino acid sequences for entries named in this document (tags omitted).
UniProt P42224: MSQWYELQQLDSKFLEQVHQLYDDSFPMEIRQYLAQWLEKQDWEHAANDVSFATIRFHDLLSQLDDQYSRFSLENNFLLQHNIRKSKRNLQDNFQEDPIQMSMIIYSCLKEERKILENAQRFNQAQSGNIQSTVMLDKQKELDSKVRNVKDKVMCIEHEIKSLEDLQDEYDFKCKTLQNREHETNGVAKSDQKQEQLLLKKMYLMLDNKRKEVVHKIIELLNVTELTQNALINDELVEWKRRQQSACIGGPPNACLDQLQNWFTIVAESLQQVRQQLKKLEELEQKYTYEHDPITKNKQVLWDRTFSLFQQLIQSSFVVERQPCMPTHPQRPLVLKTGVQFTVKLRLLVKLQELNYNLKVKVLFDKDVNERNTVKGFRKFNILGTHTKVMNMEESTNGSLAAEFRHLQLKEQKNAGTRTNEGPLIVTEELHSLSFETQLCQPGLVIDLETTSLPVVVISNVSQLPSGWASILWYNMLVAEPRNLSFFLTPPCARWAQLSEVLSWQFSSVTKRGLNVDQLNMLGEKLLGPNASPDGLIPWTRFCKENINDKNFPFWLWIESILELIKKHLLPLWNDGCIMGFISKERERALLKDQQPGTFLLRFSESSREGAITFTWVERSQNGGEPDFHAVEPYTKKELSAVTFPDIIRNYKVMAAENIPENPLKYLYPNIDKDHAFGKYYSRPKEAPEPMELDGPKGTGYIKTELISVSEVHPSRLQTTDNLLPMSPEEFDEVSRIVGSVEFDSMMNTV

Target: T1, FLAG-KDM3A-S265A, full length (UniProt Q9Y4C1)
T1 sequence: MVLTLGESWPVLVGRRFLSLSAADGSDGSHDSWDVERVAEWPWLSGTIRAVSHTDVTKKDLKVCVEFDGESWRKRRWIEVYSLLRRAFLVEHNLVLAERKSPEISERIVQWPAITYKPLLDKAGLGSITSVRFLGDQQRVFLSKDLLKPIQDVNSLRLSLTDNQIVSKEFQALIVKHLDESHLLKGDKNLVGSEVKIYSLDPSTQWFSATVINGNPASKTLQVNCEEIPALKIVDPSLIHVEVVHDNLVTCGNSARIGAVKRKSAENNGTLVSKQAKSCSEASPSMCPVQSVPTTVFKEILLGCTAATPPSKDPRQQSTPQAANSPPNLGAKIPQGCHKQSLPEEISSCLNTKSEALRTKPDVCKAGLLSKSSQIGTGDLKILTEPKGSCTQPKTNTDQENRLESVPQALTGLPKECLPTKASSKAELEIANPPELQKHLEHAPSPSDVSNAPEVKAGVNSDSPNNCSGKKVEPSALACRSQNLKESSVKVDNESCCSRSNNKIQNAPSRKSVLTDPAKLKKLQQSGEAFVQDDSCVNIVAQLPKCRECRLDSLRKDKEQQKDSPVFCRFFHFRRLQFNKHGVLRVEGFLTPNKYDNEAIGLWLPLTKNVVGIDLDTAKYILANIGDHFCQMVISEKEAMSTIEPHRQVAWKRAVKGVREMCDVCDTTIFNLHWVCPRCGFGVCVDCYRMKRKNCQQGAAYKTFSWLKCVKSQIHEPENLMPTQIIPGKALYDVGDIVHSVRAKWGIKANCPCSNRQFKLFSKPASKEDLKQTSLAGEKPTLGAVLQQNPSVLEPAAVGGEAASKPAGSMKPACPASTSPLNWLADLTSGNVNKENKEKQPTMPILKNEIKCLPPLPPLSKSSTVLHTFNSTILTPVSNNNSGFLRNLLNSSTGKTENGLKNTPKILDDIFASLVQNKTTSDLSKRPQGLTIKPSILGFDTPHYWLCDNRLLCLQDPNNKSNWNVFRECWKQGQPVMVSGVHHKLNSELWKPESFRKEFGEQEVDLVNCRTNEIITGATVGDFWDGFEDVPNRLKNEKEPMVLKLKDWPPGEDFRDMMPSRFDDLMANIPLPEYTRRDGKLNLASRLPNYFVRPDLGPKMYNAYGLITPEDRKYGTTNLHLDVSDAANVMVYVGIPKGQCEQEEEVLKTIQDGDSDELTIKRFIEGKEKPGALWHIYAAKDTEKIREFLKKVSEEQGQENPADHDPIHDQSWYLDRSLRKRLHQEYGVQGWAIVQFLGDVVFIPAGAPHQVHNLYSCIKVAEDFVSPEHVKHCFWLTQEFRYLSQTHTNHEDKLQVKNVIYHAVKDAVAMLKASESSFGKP
Assay: co-IP; FLAG-tagged KDM3A constructs transfected into Jurkat cells, with or without heat shock (42°C); whole cell extract, IP anti-FLAG; endogenous partner (Stat1, p-MSK1) by western blot

Stat1 (endogenous) (from UniProt P42224 1-750)
binding: binds
